# According to the supplement of paper PMC4604168 (melanoma cell lines):
# This is one part of the list. Single values are uncertain, as repeats are few or missing.
# Columns and labels:
# Test in all cases: cell count relative to DMSO control; melanoma cells; higher = more viable cells
# Conditions in all cases: library dose: standard library concentration; 72 h
# A101D = tested on: A101D
# A2058 = tested on: A2058
# A375 = tested on: A375
# 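Further: cells treated in 1,536-well plates, then fixed and DAPI-stained, with nuclei counted from automated high-throughput microscope images.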
Compound,cell count (A101D) [%],cell count (A2058) [%],cell count (A375) [%]
"Cn1c(=O)n(-c2ccc(C(C)(C)C#N)cc2)c2c3cc(-c4cnc5ccccc5c4)ccc3ncc21 + CNC(=O)c1cc(Oc2ccc(NC(=O)Nc3ccc(Cl)c(C(F)(F)F)c3)cc2)ccn1 [sorafenib] (first compound 0.02 µM, partner dose 2 µM)",83,64.6,84.7
"Cn1c(=O)n(-c2ccc(C(C)(C)C#N)cc2)c2c3cc(-c4cnc5ccccc5c4)ccc3ncc21 + O=C(CCCCCCC(=O)Nc1ccccc1)NO [vorinostat] (first compound 0.02 µM, partner dose 0.4 µM)",74.1,80.4,86.1
"COc1ccc(C2=N[C@@H](c3ccc(Cl)cc3)[C@@H](c3ccc(Cl)cc3)N2C(=O)N2CCNC(=O)C2)c(OC(C)C)c1 [Nutlin-3] + NCC(=O)Nc1ccc(-n2nc(C(F)(F)F)cc2-c2ccc3c(ccc4ccccc43)c2)cc1 [OSU03012] (first compound 0.5 µM, partner dose 5 µM)",72.3,84.4,60.2
"Cc1cn(-c2cc(NC(=O)c3ccc(C)c(Nc4nccc(-c5cccnc5)n4)c3)cc(C(F)(F)F)c2)cn1 [nilotinib] + CN(NC(=O)CC(=O)NN(C)C(=S)c1ccccc1)C(=S)c1ccccc1 [STA4783] (first compound 1 µM, partner dose 0.03 µM)",68.4,,143
"Cc1cc(Nc2cc(N3CCN(C)CC3)nc(/C=C/c3ccccc3)n2)n[nH]1 + COc1cc(Nc2ncc(F)c(Nc3ccc4c(n3)NC(=O)C(C)(C)O4)n2)cc(OC)c1OC [Tamatinib] (first compound 0.2 µM, partner dose 2 µM)",58.7,66.4,96.4
"Cc1cc(Nc2cc(N3CCN(C)CC3)nc(/C=C/c3ccccc3)n2)n[nH]1 + CO[C@@H]1[C@H](N(C)C(=O)c2ccccc2)C[C@H]2O[C@]1(C)n1c3ccccc3c3c4c(c5c6ccccc6n2c5c31)C(=O)NC4 [Midostaurin] (first compound 0.2 µM, partner dose 0.4 µM)",66.8,54.5,88
"CC(C)C[C@H](NC(=O)[C@H](Cc1ccccc1)NC(=O)c1cnccn1)B(O)O [Bortezomib] + CCCS(=O)(=O)Nc1ccc(F)c(C(=O)c2c[nH]c3ncc(Cl)cc23)c1F [PLX4720] (first compound 0.005 µM, partner dose 0.4 µM)",14.3,17.9,97.6
"CC(C)C[C@H](NC(=O)[C@H](Cc1ccccc1)NC(=O)c1cnccn1)B(O)O [Bortezomib] + Cn1cncc1[C@@](N)(c1ccc(Cl)cc1)c1ccc2c(c1)c(-c1cccc(Cl)c1)cc(=O)n2C [tipifarnib] (first compound 0.005 µM, partner dose 0.05 µM)",9.43,10.8,92.8
"Cn1c(=O)n(-c2ccc(C(C)(C)C#N)cc2)c2c3cc(-c4cnc5ccccc5c4)ccc3ncc21 + Clc1ccc(Nc2nnc(Cc3ccncc3)c3ccccc23)cc1 [vatalanib] (first compound 0.02 µM, partner dose 10 µM)",58.2,51.2,70.7
"COc1ccc(C2=N[C@@H](c3ccc(Cl)cc3)[C@@H](c3ccc(Cl)cc3)N2C(=O)N2CCNC(=O)C2)c(OC(C)C)c1 [Nutlin-3] + COCC[n+]1c2c(n(Cc3cnccn3)c1C)C(=O)c1ccccc1C2=O [YM155] (first compound 0.5 µM, partner dose 0.002 µM)",58.8,24.9,70.4
"COc1ccc(C2=N[C@@H](c3ccc(Cl)cc3)[C@@H](c3ccc(Cl)cc3)N2C(=O)N2CCNC(=O)C2)c(OC(C)C)c1 [Nutlin-3] + CC1(C)NC(=O)N(c2ccc([N+](=O)[O-])c(C(F)(F)F)c2)C1=O [nilutamide] (first compound 0.5 µM, partner dose 5 µM)",49.9,85.6,79.3
"Cn1c(=O)n(-c2ccc(C(C)(C)C#N)cc2)c2c3cc(-c4cnc5ccccc5c4)ccc3ncc21 + CO[C@@H]1[C@H](N(C)C(=O)c2ccccc2)C[C@H]2O[C@]1(C)n1c3ccccc3c3c4c(c5c6ccccc6n2c5c31)C(=O)NC4 [Midostaurin] (first compound 0.02 µM, partner dose 0.4 µM)",62.5,49.1,60.9
"Cn1c(=O)n(-c2ccc(C(C)(C)C#N)cc2)c2c3cc(-c4cnc5ccccc5c4)ccc3ncc21 + Cn1nnc2c(C(N)=O)ncn2c1=O [temozolomide] (first compound 0.02 µM, partner dose 10 µM)",68.5,37.5,75
"Cn1c(=O)n(-c2ccc(C(C)(C)C#N)cc2)c2c3cc(-c4cnc5ccccc5c4)ccc3ncc21 + Cn1cncc1[C@@](N)(c1ccc(Cl)cc1)c1ccc2c(c1)c(-c1cccc(Cl)c1)cc(=O)n2C [tipifarnib] (first compound 0.02 µM, partner dose 0.05 µM)",62.3,49.5,80
"Cc1cn(-c2cc(NC(=O)c3ccc(C)c(Nc4nccc(-c5cccnc5)n4)c3)cc(C(F)(F)F)c2)cn1 [nilotinib] + NC(=O)Nc1cc(-c2cccc(F)c2)sc1C(=O)N[C@H]1CCCNC1 [AZD7762] (first compound 1 µM, partner dose 0.1 µM)",47.8,73.8,78.2
"Cn1c(=O)n(-c2ccc(C(C)(C)C#N)cc2)c2c3cc(-c4cnc5ccccc5c4)ccc3ncc21 + C[C@]1(c2nc3c(C(N)=O)cccc3[nH]2)CCCN1 [Veliparib] (first compound 0.02 µM, partner dose 7 µM)",67.2,58.6,76.7
"Cc1cc(Nc2cc(N3CCN(C)CC3)nc(/C=C/c3ccccc3)n2)n[nH]1 + O=C(CCCCCCC(=O)Nc1ccccc1)NO [vorinostat] (first compound 0.2 µM, partner dose 0.4 µM)",70.1,72.2,85.8
"Cc1cn(-c2cc(NC(=O)c3ccc(C)c(Nc4nccc(-c5cccnc5)n4)c3)cc(C(F)(F)F)c2)cn1 [nilotinib] + Cc1cc(N2CCOCC2)cc2[nH]c(-c3c(NC[C@@H](O)c4cccc(Cl)c4)cc[nH]c3=O)nc12 [BMS536924] (first compound 1 µM, partner dose 1 µM)",75.1,98.3,117
"Cc1cn(-c2cc(NC(=O)c3ccc(C)c(Nc4nccc(-c5cccnc5)n4)c3)cc(C(F)(F)F)c2)cn1 [nilotinib] + COc1cc(Nc2ncc(F)c(Nc3ccc4c(n3)NC(=O)C(C)(C)O4)n2)cc(OC)c1OC [Tamatinib] (first compound 1 µM, partner dose 2 µM)",68.9,117,122
"CC(C)C[C@H](NC(=O)[C@H](Cc1ccccc1)NC(=O)c1cnccn1)B(O)O [Bortezomib] + CNC(=O)c1cc(Oc2ccc(NC(=O)Nc3ccc(Cl)c(C(F)(F)F)c3)cc2)ccn1 [sorafenib] (first compound 0.005 µM, partner dose 2 µM)",15,12,126
"Cn1c(=O)n(-c2ccc(C(C)(C)C#N)cc2)c2c3cc(-c4cnc5ccccc5c4)ccc3ncc21 + C#Cc1cccc(Nc2ncnc3cc(OCCOC)c(OCCOC)cc23)c1 [erlotinib] (first compound 0.02 µM, partner dose 4 µM)",75,47.6,93.2
"Cn1c(=O)n(-c2ccc(C(C)(C)C#N)cc2)c2c3cc(-c4cnc5ccccc5c4)ccc3ncc21 + CN1CCN(c2ccc3nc(-c4c(N)c5c(F)cccc5[nH]c4=O)[nH]c3c2)CC1 [Dovitinib] (first compound 0.02 µM, partner dose 0.5 µM)",77.3,41.9,78.8
